In all, about 110,000 compounds were measured (“z-score”: median about -0.1, highest 2% from about 2 on). Some of the results follow.

The assay has as its target Metabotropic glutamate receptor 8 (Rattus norvegicus) (UniProt P70579). Description: mGluR8 Gi/Go-coupled signaling modulation – cell-based, rat, thallium flux, HTS, primary screen (AID 488969). Particulars: HEK293 rat mGluR8, GIRK (G protein-gated inwardly rectifying potassium channel) thallium flux, FluoZin2; at 10 µM; stronger effect = higher value; submaximal glutamate (EC20) added with thallium.
Sequence of UniProt P70579 (P70579 whole entry, looked up): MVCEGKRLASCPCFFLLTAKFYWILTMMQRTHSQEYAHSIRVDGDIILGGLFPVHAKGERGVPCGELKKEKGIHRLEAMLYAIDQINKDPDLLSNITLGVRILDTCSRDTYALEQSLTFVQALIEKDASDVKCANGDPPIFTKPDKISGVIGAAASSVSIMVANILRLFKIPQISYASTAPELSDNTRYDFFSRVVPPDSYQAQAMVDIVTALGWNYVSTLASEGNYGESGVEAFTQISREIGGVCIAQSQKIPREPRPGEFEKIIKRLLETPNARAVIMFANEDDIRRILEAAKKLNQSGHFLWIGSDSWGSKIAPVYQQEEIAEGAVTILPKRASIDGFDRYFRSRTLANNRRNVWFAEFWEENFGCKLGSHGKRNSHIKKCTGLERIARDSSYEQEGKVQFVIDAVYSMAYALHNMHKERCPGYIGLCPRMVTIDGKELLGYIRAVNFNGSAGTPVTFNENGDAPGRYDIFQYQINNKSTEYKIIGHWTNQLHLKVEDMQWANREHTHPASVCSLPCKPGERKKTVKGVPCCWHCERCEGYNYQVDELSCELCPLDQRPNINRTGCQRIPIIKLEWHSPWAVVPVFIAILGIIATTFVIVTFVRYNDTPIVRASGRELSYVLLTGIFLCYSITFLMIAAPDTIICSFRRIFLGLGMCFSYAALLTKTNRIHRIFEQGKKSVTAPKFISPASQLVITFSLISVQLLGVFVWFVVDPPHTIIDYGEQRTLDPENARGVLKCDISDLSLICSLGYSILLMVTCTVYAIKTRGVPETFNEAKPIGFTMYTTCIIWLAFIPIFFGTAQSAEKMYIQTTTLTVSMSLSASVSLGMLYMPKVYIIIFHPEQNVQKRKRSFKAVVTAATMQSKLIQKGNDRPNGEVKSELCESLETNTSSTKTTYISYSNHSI
With `Cc1ccc(Cn2c(-c3nonc3N)nc3ccccc32)cc1`, the z-score is -2.33.

For the compound `COC(=O)C(O)(CC(=O)Nc1cc(Cl)ccc1Cl)C(F)(F)F` (stereo not given), the z-score was -0.0611.

For the compound `Cc1ccc(N(CC(O)Cn2c3ccccc3c3ccccc32)S(C)(=O)=O)cc1` (stereo not given), the z-score was 0.628. As to `COc1ccc(N(CC(=O)Nc2ccc(S(=O)(=O)N3CCOCC3)cc2)S(=O)(=O)c2ccccc2)cc1`, the z-score is -0.371. The same measure for `Cn1c(=O)oc2cc(S(=O)(=O)N3CCCC(C(=O)NCc4ccc5c(c4)OCO5)C3)ccc21` (stereo not given): 0.0687.

`CCN(CC)c1ccc(C2C3CCCCC3(O)CCN2CC(=O)Nc2ccccc2)cc1` (stereo not given): the z-score turned out to be 0.131. The same measure for `O=C(c1cccs1)N1CCN(S(=O)(=O)Cc2ccccc2)CC1`: 0.263; for `COc1ccccc1-c1nc(C#N)c(N2CCc3ccccc3C2)o1`: -1.32; for `N#C/C(=N\Nc1cccc(Cl)c1)C(=O)c1ccccc1`: -0.892. As to `COc1ccc(OC)c(/C=C/C(=O)OCC(=O)Nc2cccc(Oc3ccccc3)c2)c1`, the z-score stood at 0.125. Consider `Cc1onc(-c2c(F)cccc2Cl)c1C(=O)Nc1sc2c(c1C(N)=O)CCC2`, for which the z-score is -0.0663. The same measure for `O=C(Nc1cccc(S(=O)(=O)C(F)F)c1)c1ccc(S(=O)(=O)N2CCOCC2)cc1`: -0.42; for `CCOC(=O)c1sc(NC(=O)CCN2CC(C)OC(C)C2)c(C(=O)OCC)c1C` (stereo not given): -0.533. For `CC(=O)Nc1ccc(S(=O)(=O)NCC2CCC(C(=O)N3CCN(c4ccccn4)CC3)CC2)cc1` (stereo not given), the z-score is -1.85. The same measure for `COc1ccc(OCC(=O)N/N=C/c2ccc(OC)c(OC)c2C(=O)O)cc1`: 0.0225. `O=C(c1ccc([N+](=O)[O-])cc1)N(Cc1ccc(Cl)cc1Cl)N1C(=O)CCCC1=O`: the z-score is -0.157.

`CCCCOC(=O)Nc1nnc(CCOCC)s1` registered a z-score of 0.454.

Take `COc1ccccc1/C=C/C(=O)NCC(=O)N/N=C/c1cccnc1`: the z-score is 0.376. As to `CCC(C)c1ccc(OCC(=O)Nc2ccc(Cl)cn2)cc1` (stereo not given), the z-score was -0.607.

In the case of `On1c(-c2ccccc2)nc2ccc(Cl)cc21`, the z-score is -0.175.

For the compound `O=C(CCCCCn1c(=O)[nH]c2ccsc2c1=O)N1CCCCC1`, the z-score was determined as 0.0114. The same measure for `CCOc1ccc(-c2csc(/C(C#N)=C\c3ccc(O)c([N+](=O)[O-])c3)n2)cc1`: -0.0468. Regarding `COc1ccc(NC(=S)NC(NC(=O)c2cccc3ccccc23)C(Cl)(Cl)Cl)c([N+](=O)[O-])c1` (stereo not given), the z-score is 0.288. On to `CCNc1nc(NCC)n2c(SCC(=O)N3CC4(C)CC3CC(C)(C)C4)nnc2n1` (stereo not given), for which the z-score is -0.372. As for `O=S(=O)(Nc1nc2ccc(S(=O)(=O)N3CCCC3)cc2s1)c1ccc(F)cc1`, the z-score is -0.0332. The same measure for `Cc1cc(S(=O)(=O)Nc2ccccc2C(=O)O)ccc1Cl`: -0.498; for `O=C(CN1CCN(Cc2ccc3c(c2)OCO3)CC1)c1c[nH]c2ccccc12`: -0.0425; for `COc1ccc(-n2nc(C(=O)NCC(=O)N3CCN(c4ccccn4)CC3)c3ccccc3c2=O)cc1`: 0.213. With `CC(C)N=C(NC#N)SCc1ccccc1`, the z-score is -0.319. `CC(/C=N\N1CCN(c2ccc(Cl)cc2)CC1)=C\c1ccccc1`: the z-score is -0.0676. The same measure for `Nn1c(SCC(=O)NC2CCCC2)nnc1-c1ccccc1F`: 0.166; for `COc1ccc(OC)c(CNn2c(-c3cccc(C)c3)nc3ccccc3c2=O)c1`: -0.693. The same measure for `CN=C(Nc1cc(C)nn1CCC#N)c1ccccc1F`: 1.23. In the case of `CCC1(O)c2ccccc2-c2ncccc21` (stereo not given), the z-score turned out to be 0.118. The same measure for `CC(C)Cn1c(CN(Cc2ccccc2)Cc2ccccc2)nc2c1c(=O)n(C)c(=O)n2C`: 0.297. The same measure for `CC(Sc1ccccc1)C(=O)Nc1cccc(N(C)S(C)(=O)=O)c1` (stereo not given): 0.0381; for `O=C(O)C1CC(c2ccccc2)=NO1` (stereo not given): -0.378. On to `Cc1ccccc1NC1=C/C(=N\S(=O)(=O)c2cccs2)c2ccccc2C1=O`, for which the z-score is -0.0328.

As to `Cc1cc(=O)[nH]c(SCCCOc2ccc(F)cc2)n1`, the z-score was -0.256. The same measure for `CCOP(=O)(c1ccc(N(C)C)cc1)C(O)c1ccc(Cl)cc1` (stereo not given): 1.3; for `COCCN(C(=O)Cn1nnc2ccccc21)C(C(=O)NC1CCCC1)c1ccc(OC)cc1OC` (stereo not given): -0.567. The same measure for `O=C(c1ccc2c(c1)OCO2)N(c1ccccc1)C1C=CS(=O)(=O)C1` (stereo not given): 0.361. In the case of `COc1cccc(/C=C/C(=O)NCCc2ccc(OC)c(OC)c2)c1`, the z-score is -0.351. The same measure for `Cc1cc(NC(=O)CSc2nnnn2C)n(-c2ccccc2)n1`: -0.0738; for `Cc1ccc(C(=O)NC(=S)N2CCN(C)CC2)cc1`: 0.0855. For the compound `CCOC(=O)CC1C(=O)NCCN1C(=O)c1cccc(C(F)(F)F)c1` (stereo not given), the z-score was -0.191.

With `Cc1cc(C)c2oc(=O)cc(CN3CCOCC3)c2c1`, the z-score is -0.0321. Consider `CCC(c1nnc(SCC(=O)Nc2ccc(Cl)cc2C(F)(F)F)n1C1CCCCC1)N(C)C` (stereo not given), for which the z-score is -0.456.

For the compound `COc1cccc(CNC(=O)c2cc3ccccn3n2)c1`, the z-score was -0.0699. For the compound `CC(C)C1Nc2ccc(S(N)(=O)=O)cc2C2C=CCC21` (stereo not given), the z-score was -0.325.

For `CC(C)CNS(=O)(=O)c1ccc(CCC(=O)Nc2ccc3c(c2)OCO3)cc1`, the z-score was -0.0635. The same measure for `Cc1cc(C)cc(NC(=O)CSc2nnc(CN3CCOCC3)n2C)c1`: 0.0844; for `COc1ccc(C(=O)N2CCN=C2SCc2cccnc2)cc1OC`: 0.402. For `CS(=O)(=O)Nc1ccc(C(=O)Nc2ccccc2Sc2ccccc2)cc1`, the z-score was found to be 0.277. The same measure for `CCCSC(=O)N(CC)CC(=O)Nc1c(CC)cccc1CC`: -1.38; for `Cc1cc2c(nn1)CCC/C2=N\O`: 0.743; for `CCN1CCCC1CNC(=O)c1cc(OC)c(OC)c(OC)c1` (stereo not given): -0.202. As for `COc1ccc(CCNc2cc(-c3ccccc3)nc3ncnn23)cc1`, the z-score is -0.536. The same measure for `CSc1ccccc1NC(=O)CO/N=C(\C)c1cc2ccccc2o1`: -0.724; for `CCc1ccccc1NC(=O)Cn1nnc(-c2cccnc2)n1`: -0.0205; for `CCCCN=C1NN=C(c2cc3ccccc3o2)CS1`: -0.261. As to `CCN(CC)C(=O)C1CCCc2c1[nH]c1ccc(Cl)cc21` (stereo not given), the z-score is -0.403. The same measure for `CC1=NN(C(=O)c2ccc(Cn3nc(C)c(Br)c3C)cc2)C(O)(C(F)(F)F)C1` (stereo not given): -0.331; for `CCOC(=O)N/N=C/c1cn(CCCOc2ccccc2)c2ccccc12`: -0.0587. The same measure for `CC1=NN(C(=O)c2ccc(C)cc2)C(O)(C(F)(F)OC(F)(F)F)C1` (stereo not given): -0.0203; for `c1ccc(CSC2=NCCCN2)cc1`: 0.34; for `CCOC(=O)CSc1ncnc2c1c(-c1ccccc1)cn2-c1ccc(OC)cc1`: -0.583.

For `COc1ccccc1NC(=O)c1c(C)oc2c1CCCC2`, the z-score is -0.554.

As to `CN(C(=O)CCc1nc2ccccc2s1)c1ccccc1`, the z-score is -0.0525. As for `CN1CCC(OC(=O)c2ccc(Br)cc2)CC1`, the z-score is -0.113.

The values are drawn from PubChem BioAssay AID488969 (Vanderbilt High Throughput Screening Facility, 2010).
